From paper PMC4336329 (PLoS ONE, 2015)
The campaign covered roughly 310,000 compounds. About 14,000 (4.5%) showed an effect of 50% or more. The effect is printed as a negative number. The list shows a part of the results.

molecular target: human ether-à-go-go-related gene (hERG) potassium channel (human, UniProt Q12809); test: primary screen, population patch clamp on CHO cells stably expressing hERG
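Further: peak tail current of the secondary pulse compared with the same well before compound.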

Sequence of human ether-à-go-go-related gene (hERG) potassium channel (Q12809 whole entry, looked up): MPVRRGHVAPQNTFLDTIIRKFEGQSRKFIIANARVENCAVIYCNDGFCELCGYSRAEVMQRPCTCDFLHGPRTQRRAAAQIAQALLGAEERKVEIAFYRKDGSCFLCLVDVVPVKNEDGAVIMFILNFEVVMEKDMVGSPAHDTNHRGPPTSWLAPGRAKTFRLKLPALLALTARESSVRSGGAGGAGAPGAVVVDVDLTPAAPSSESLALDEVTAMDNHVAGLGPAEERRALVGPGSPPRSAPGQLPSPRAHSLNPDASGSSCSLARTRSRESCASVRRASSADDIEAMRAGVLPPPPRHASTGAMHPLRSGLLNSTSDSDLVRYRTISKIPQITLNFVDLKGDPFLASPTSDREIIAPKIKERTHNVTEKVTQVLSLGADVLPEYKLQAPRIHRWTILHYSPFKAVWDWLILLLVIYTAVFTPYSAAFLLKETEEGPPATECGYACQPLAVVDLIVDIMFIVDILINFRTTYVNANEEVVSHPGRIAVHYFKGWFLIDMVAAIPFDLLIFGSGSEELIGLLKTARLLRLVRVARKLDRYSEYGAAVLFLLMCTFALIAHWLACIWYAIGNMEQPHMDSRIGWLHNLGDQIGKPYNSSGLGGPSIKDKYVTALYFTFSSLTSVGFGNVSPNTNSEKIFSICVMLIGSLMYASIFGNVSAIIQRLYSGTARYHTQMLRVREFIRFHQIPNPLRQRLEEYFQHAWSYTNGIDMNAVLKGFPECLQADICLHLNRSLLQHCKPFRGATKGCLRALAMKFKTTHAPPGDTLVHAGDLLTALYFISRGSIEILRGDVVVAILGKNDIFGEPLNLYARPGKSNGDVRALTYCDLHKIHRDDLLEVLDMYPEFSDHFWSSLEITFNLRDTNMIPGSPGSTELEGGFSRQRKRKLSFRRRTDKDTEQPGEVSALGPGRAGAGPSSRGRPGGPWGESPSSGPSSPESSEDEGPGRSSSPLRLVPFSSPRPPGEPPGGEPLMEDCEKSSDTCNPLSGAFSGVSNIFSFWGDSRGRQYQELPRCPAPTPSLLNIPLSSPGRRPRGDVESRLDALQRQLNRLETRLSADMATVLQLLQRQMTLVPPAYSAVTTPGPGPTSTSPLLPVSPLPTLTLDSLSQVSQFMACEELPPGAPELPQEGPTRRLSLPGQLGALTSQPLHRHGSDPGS

| Structure (SMILES) | hERG current change (%, negative = inhibition) at 10uM |
| --- | --- |
| O=C(NCCCN1CCCC1)c1ccc2c(Cl)c3c(nc2c1)CCCC3 | -50.1% |
| Cc1ccc(S(=O)(=O)N2CCCN(c3nccc(C(F)(F)F)n3)CC2)cc1 | 4.77% |
| CN(C)S(=O)(=O)c1ccc(/C(O)=C2/C(=O)C(=O)N(Cc3cccnc3)C2c2ccncc2)cc1 (stereo not shown) | 13% |
| CCOC(=O)Cn1cnc2c(cnn2-c2ccccc2)c1=O | 19.3% |
| COc1ccc(/C=C\C(=O)c2c(O)ccc3c(C)cc(=O)oc23)cc1OC | 8.03% |
| COc1ccccc1OC(=O)c1ccc(SC)cc1OC | -24% |
| Cc1ccc(NC(=O)CSc2nccn(-c3ccc4c(c3)OCCO4)c2=O)cc1 | -5.2% |
| CC(=O)Oc1ccc(-c2cccc(C(=O)O)c2)cc1 | 10.4% |
| Nc1nc(NCC2CCCO2)nc(Nc2ccccc2)c1[N+](=O)[O-] (stereo not shown) | -12.7% |
| CCOc1ccccc1NC(=O)CC1SC(=N)N(c2ccccc2)C1=O (stereo not shown) | 6.4% |
| COC(=O)c1ccc(NC(=O)COc2cccc3c2OC(C)(C)C3)cc1 | -0.606% |
| CC(C)(C)NC(=O)COc1ccc(CNCc2cccnc2)cc1.Cl | -3.67% |
| CS(=O)(=O)N1CCN(C(=O)c2ccc(Cl)s2)CC1 | 7.69% |
| CCS(=O)(=O)Nc1ccc2c(c1)OCO2 | 10.7% |
| CN(CC1CCOCC1)C(=O)CC1C(=O)NCCN1CC1CCCCC1 (stereo not shown) | 18.6% |
| CCC(=O)n1nc(-c2ccccc2)nc1SCC(=O)Nc1ccc(C)cc1 | -2.1% |
| C=CCOc1ccc(C(=O)CC)cc1OC | -0.696% |
| CN(C)Cc1cc2ccccc2c2c1COC2 | -0.493% |
| Cc1ccccc1NCc1nc2ccccc2n1C | 16.3% |
| CN(Cc1nc(-c2ccccc2)no1)C(=O)c1ccc2c(c1)OCO2 | -20.5% |

| Structure (SMILES) | hERG current change (%, negative = inhibition) at 10uM |
| --- | --- |
| S=C(NCC1CCCO1)N1CCN(Cc2ccccc2Cl)CC1 (stereo not shown) | 1.7% |
| O=S1(=O)CCOC[C@H](c2ccccc2)N1Cc1ccccc1 | 11.4% |
| Cn1c(-c2ccc3nc(N)sc3c2)nc2cc(N)ccc21 | -1.01% |
| CCOC(=O)Cc1ccc(NS(=O)(=O)c2ccc(SC)cc2)cc1 | -10.5% |
| CCOC(=O)c1ccc2nc(Nc3nc4ccc(F)cc4s3)sc2c1 | -8.68% |
| CC(C)(C)NC(=O)c1ccccc1-c1nc2ccccc2s1 | -1.65% |
| C=CCSC1=C(C#N)C(c2ccccc2C)CC(=O)N1 (stereo not shown) | 3.73% |
| Cc1c(N=C2N=C(NC(=O)c3ccc(F)cc3)c3ccccc32)c(=O)n(-c2ccccc2)n1C | 4.56% |
| Cc1sc2nc(SCC(=O)N(CCO)CCO)nc(N)c2c1C | 11.6% |
| CCOC(=O)COc1ccccc1C1Nc2ccccc2C(=O)N1c1cccc(Cl)c1 (stereo not shown) | -21% |
| Nc1n[nH]c2c1C1(CCCCC1)Cc1ccccc1-2 | 11.9% |
| O=C(Cn1cnc2cc([N+](=O)[O-])ccc2c1=O)NC(=O)NCc1ccccc1 | 2.25% |
| C=CCN(CC=C)S(=O)(=O)c1ccc2nsnc2c1 | -1.88% |
| Cc1cc(OCCN2CC(C)OC(C)C2)ccc1[N+](=O)[O-].O=C(O)C(=O)O (stereo not shown) | -13.8% |
| CCCN(CCC)S(=O)(=O)c1ccc(C(=O)NCc2n[nH]c(=S)n2-c2ccc(Cl)c(Cl)c2)cc1 | 8.32% |
| O=C(COc1ccccc1)Nc1nc(-c2cccnc2)cs1 | 0.9% |
| COc1cc2c(cc1NC(=O)CSc1nccn1C)oc1ccccc12 | 0.938% |
| Cc1ccc(S(=O)(=O)N(C)C)cc1NC(=O)COC(=O)CNC(=O)C12CC3CC(CC(C3)C1)C2 | 3.39% |
| Cc1cc(=O)n(C(NC(=O)c2ccccc2)C(=O)c2ccccc2)cn1 (stereo not shown) | 3.71% |
| COc1ccc2c(CC(=O)N3CCc4cc(OC)c(OC)cc4C3)coc2c1 | 9.06% |

| Structure (SMILES) | hERG current change (%, negative = inhibition) at 10uM |
| --- | --- |
| CCN(CC)C(=O)C1CCN(Cc2cccc(OCc3ccccc3)c2)CC1.O=C(O)C(=O)O | -39.6% |
| COc1ccc(S(=O)(=O)N(C)c2ccc(C(=O)N3CCN(C)CC3)cc2)cc1 | 3.25% |
| CC1CCN(C(=O)CN2C(=O)NC(c3ccccc3)(c3ccccc3)C2=O)CC1 | -12.7% |
| O=C(C(c1ccccc1)c1ccccc1)N1CCC(c2nc(-c3ccccc3Cl)no2)CC1 | 11.2% |
| CCCCCCc1ccc(O)cc1O | 20.7% |
| CCN(CC(O)CON=C1c2ccccc2-c2ccccc21)S(=O)(=O)c1ccc(C)cc1 (stereo not shown) | -2.86% |
| Brc1ccc(C2C3=C(Nc4ncnn42)c2ccccc2OC3c2ccncc2)cc1 (stereo not shown) | -32% |
| O=C(/C=C/Nc1ccccc1Oc1ccccc1)c1ccco1 | 21.9% |
| CCCCCC1CC1C(=O)N/N=C/c1ccc(N(C)C)cc1 (stereo not shown) | -3.17% |
| NC(=O)COC(=O)c1ccc(Cl)c(S(=O)(=O)N2CCCCCC2)c1 | -4.36% |
| C=CCNC(=O)C1CC2c3ccccc3C1c1ccccc12 (stereo not shown) | 10.6% |
| CCC(NC(=O)CCl)c1ccc(C)cc1 (stereo not shown) | 15.3% |
| CCC(=O)Nc1ccc(C(=O)c2ccccc2)cc1 | -9.96% |
| CC(C(=O)O)n1nc(-c2ccccc2)c2ccccc21 (stereo not shown) | -2.62% |
| C=CCOC(=O)C1=C(C)NC(=O)NC1c1ccc2c(c1)OCO2 (stereo not shown) | -11.9% |
| Cc1ccc(C(=O)Nc2c3c(nn2C(C)(C)C)CS(=O)(=O)C3)cc1[N+](=O)[O-] | 10.7% |
| CC(=O)N1N=C2C3CCN(CC3)C2C1c1ccccc1 (stereo not shown) | 17% |
| CS(=O)(=O)O.c1ccc(-c2ccc3c(c2)c2c4n3CCN=C4CCC2)cc1 | -61.5% |
